Assay results published in paper PMC4336329 (PLoS ONE, 2015).
Hit rate of the full screen: of about 310,000 compounds, about 14,000 (4.5%) showed an effect of 50% or more. The effect is printed as a negative number. Some of the results follow.

target: human ether-à-go-go-related gene (hERG) potassium channel (human, UniProt Q12809); assay: primary screen, population patch clamp on CHO cells stably expressing hERG
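Note: peak tail current of the secondary pulse compared with the same well before compound.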

Sequence of human ether-à-go-go-related gene (hERG) potassium channel (Q12809 whole entry, looked up): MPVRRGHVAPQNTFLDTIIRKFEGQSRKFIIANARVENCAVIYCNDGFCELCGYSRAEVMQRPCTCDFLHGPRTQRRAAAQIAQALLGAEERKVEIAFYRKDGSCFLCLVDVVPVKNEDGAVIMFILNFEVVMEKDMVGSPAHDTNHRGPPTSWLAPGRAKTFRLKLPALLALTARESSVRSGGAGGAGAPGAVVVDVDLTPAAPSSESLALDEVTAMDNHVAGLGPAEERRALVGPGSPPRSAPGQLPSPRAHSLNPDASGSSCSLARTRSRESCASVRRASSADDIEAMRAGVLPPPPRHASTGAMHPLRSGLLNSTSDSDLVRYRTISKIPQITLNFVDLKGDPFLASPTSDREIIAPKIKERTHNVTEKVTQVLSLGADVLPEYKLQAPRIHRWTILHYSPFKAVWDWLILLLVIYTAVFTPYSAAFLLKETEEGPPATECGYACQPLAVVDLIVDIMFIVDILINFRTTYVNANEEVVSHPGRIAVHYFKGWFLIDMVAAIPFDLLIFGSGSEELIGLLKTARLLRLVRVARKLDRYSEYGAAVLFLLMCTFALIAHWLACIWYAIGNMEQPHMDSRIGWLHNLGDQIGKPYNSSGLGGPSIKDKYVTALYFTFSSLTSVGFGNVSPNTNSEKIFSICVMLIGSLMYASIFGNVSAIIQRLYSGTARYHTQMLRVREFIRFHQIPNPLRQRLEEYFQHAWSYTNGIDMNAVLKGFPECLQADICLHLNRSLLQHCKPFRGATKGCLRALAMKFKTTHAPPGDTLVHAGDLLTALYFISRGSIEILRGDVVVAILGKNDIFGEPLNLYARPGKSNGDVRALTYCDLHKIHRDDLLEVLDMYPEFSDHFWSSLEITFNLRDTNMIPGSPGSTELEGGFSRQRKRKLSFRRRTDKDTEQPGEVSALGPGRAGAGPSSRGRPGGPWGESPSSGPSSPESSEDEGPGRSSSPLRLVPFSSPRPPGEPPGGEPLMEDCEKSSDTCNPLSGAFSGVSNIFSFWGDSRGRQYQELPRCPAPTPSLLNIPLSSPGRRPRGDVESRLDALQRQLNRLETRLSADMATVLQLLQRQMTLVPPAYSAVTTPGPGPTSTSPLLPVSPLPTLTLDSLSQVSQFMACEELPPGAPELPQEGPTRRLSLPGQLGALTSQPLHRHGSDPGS

Compound	hERG current change (%, negative = inhibition) at 10uM [%]
c1ccc(CN2CN=C(Nc3nc4ccccc4s3)NC2)cc1	-1.27
COc1ccc(C2(O)CCN(Cc3nnnn3Cc3ccc(C)cc3)CC2)cc1	-21.4
COc1ccc(CNC(=O)CN(C(=O)CCC(=O)Nc2ccccn2)c2cccc(C)c2)cc1	9.3
N#Cc1c(NCCCO)nc(-c2ccco2)c2c1CCCC2	-9.6
CC(C)[C@@H]1NC(=O)c2cc([N+](=O)[O-])cc(I)c2OCC[C@@H](C(N)=O)NC(=O)[C@H](CCC(=O)O)NC1=O	2.02
O=C(Nn1cnnc1)c1ccc(OC(F)(F)C(F)C(F)(F)F)cc1 (stereo not drawn)	21.3
COc1ccccc1N(CC(=O)NC1CCCC1)C(=O)C1(C)CC(=O)N=C2C=CC(C)=CN21 (stereo not drawn)	12.5
CCOC(=O)C1CCN(S(=O)(=O)c2cc(Br)cc3c2N(C(C)=O)C(C)C3)CC1 (stereo not drawn)	-29.1
O=C(NCC1OCCc2ccccc21)c1cc(COc2ccc(F)cc2Cl)on1 (stereo not drawn)	13.9
CCS(=O)(=O)c1nc(S(=O)(=O)c2ccc(Cl)cc2)c(N2CCOCC2)s1	16.7
Cc1cccc(C)c1NC(=O)C(c1ccc(Cl)cc1Cl)N1CCCCC1 (stereo not drawn)	-4.37
CCOC(=O)c1c(NC(=O)c2cc(C)oc2C)sc(C(=O)Nc2ccc(Cl)cc2)c1C	21.9
COc1ccc(CNC(=O)Cn2cc([N+](=O)[O-])nc2C)cc1	16.8
COc1ccc(-c2ccc(SCC(=O)N3CCCC3)nn2)cc1OC	-5.82
CC(C)CNC(=O)COC(=O)c1cc(S(=O)(=O)N2CCCCC2)ccc1N1CCOCC1	-28.3
Cc1cc(C)c(C)c(S(=O)(=O)N2CCN(C(=O)C3CSC4(C)CCC(=O)N34)CC2)c1C (stereo not drawn)	-3.21
Cc1c(C(=O)N2CCC(C(N)=O)CC2)sc(N)c1C#N	2.54
CC(C)c1ccc(NC(=O)CSc2nnc(-c3ccccn3)n2C)cc1	-32.4
O=C(CCc1nc2ccccc2[nH]1)NC1CCCCC1	11.8
Cc1ccc(CCN2CC(C(=O)NC(C)C)CC2=O)cc1 (stereo not drawn)	12
O=C(c1ccc(F)cc1)N1CCN(Cc2ccccc2Br)CC1	-9.87
O=C(Nc1ccccc1N1CCCC1)c1cccc(Cl)c1Cl	15.7
COc1ccc(C2(CNC(=O)C(=O)Nc3ccc(C)cc3)CCOCC2)cc1	11.2
CCCC(=O)Nc1ccc(C(=O)N/N=C/c2ccc[nH]2)cc1	11
CC(=O)N1CC2(C)CN(C(C)=O)CC(C)(C1)C2	23.8
COc1ccc(NC(=O)CCN2CCN(S(=O)(=O)c3ccc(Cl)cc3)CC2)cc1	-27.1
COc1cc(N2CCCC2)c(OC)cc1C=O	11.7

Compound	hERG current change (%, negative = inhibition) at 10uM [%]
CCOC(=O)CN1C(=O)C(Sc2n[nH]c(-c3ccc(C)cc3)n2)CCc2ccccc21 (stereo not drawn)	-1.56
CC(C)(C)OC(=O)[C@H](Cc1ccccc1)NC(=O)c1nc[nH]c1C(=O)N1CCN(c2ccccc2)CC1	-2.89
O=C(NCc1cccnc1)c1cc(C(=O)C2CC2)c[nH]1	15.2
COc1ccc(S(=O)(=O)N(C)C)cc1NCC(=O)Nc1ccc(Br)cc1F	-14.6
CCc1cc(C)c(O)c(CC)n1	-4.65
O=C1Nc2cc(Cl)c(Cl)cc2N(O)N1c1ccc(Cl)c(Cl)c1	-2.91
CC(=O)N1CCN(S(=O)(=O)c2cccc(C(=O)Nc3ccc4c(c3)CCC4)c2)CC1	-36.6
COc1ccccc1N(CC(=O)N(C)Cc1ccccc1)S(=O)(=O)c1cccs1	-20.5
O=C(OCc1cnc(Cl)s1)c1ccc(Cl)cc1	-7.8
Cc1[nH]n(-c2ccccc2)c(=O)c1N=Nc1cccc([N+](=O)[O-])c1	0.628
Cc1ccc2nc(SCc3cccc([N+](=O)[O-])c3)nc(C)c2c1	1.55
CSCCC(NC(N)=O)C(=O)NCc1cccc(Cl)c1 (stereo not drawn)	9.05
Clc1cccc(CN2COc3c(cc(Cl)c4cccnc34)C2)c1	11.9
O=C(CSc1ccccn1)Nc1nonc1[N+](=O)[O-]	-5.26
O=C(c1ccc(CS(=O)c2ccccc2Cl)o1)N1CCN(c2ccccc2)CC1 (stereo not drawn)	-38.2
COc1ccc(S(=O)(=O)Nc2cc(S(=O)(=O)c3ccccc3)c(O)cc2C)cc1	-5.41
CCOc1ccc(C(C(=O)NCC2CCCO2)N(Cc2cccc(OC)c2)C(=O)c2snc(C(N)=O)c2N)cc1 (stereo not drawn)	-39.1
CCCCCn1c(CN2CCN(Cc3ccccc3)CC2)nc2c1c(=O)n(C)c(=O)n2C	-68
Cl.OC1(c2ccc(F)cc2)CCN(Cc2ccccc2)C1 (stereo not drawn)	-15.1
COc1ccc(-c2noc(COc3ccc(Cl)c(C)c3)n2)cc1	2.81
O=C(Nc1ccc(Cl)c(Cl)c1)C1=Cc2ccccc2OC1	8.41
O=c1c(Cc2ccccc2)c(O)nc2n1CCS2	22
CCOC(=O)[C@@H]1[C@H]2COc3cc(OC)ccc3[C@@H]2N2C(=O)N(c3ccc(OC)cc3)C(=O)[C@]12C	-3.61
Cc1ccc(NC(=O)CSc2nnc(-c3ccc(S(=O)(=O)N4CCOCC4)cc3)n2C)cc1	-22.2
CCOc1cccc(-c2nnc3sc(-c4cc(OC)c(OC)c(OC)c4)nn23)c1	-3.13
CCOc1ccc(N(CC(=O)N/N=C/c2ccc(OC(C)C)cc2)S(C)(=O)=O)cc1	-5.2
CCC(=O)C1CCCN(C(=O)c2cccc(OC3CCN(S(C)(=O)=O)CC3)c2)C1 (stereo not drawn)	11.3
